Reference: the supplement of paper PMC3334620
Over roughly 33,000 sequences, “E-score (-0.5 to 0.5)” has its median near -0.011; the highest 2% begin near 0.28. Some of the results follow.

Target: T1, Gcr1 (UniProt P07261)
T1 sequence: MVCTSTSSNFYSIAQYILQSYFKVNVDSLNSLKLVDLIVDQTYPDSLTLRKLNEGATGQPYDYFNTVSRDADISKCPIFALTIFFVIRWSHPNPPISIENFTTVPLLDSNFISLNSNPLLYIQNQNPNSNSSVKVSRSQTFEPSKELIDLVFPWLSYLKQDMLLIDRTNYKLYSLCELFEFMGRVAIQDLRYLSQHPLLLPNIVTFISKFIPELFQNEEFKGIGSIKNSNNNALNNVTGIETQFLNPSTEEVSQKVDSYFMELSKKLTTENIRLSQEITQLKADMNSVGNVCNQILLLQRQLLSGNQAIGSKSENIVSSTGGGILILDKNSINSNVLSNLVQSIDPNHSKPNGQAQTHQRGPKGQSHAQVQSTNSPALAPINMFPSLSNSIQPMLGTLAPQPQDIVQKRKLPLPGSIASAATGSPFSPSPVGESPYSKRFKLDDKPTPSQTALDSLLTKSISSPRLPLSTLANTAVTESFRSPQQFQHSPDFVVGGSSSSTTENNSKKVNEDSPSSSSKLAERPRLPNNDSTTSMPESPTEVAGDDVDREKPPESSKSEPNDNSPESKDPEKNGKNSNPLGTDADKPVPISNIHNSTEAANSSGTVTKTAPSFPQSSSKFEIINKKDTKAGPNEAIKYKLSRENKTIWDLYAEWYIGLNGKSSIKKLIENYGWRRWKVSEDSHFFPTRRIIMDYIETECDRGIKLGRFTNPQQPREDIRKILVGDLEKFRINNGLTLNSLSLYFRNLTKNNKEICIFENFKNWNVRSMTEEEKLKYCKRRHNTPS
Assay: PBM E-score (8-mer binding enrichment) (E-score (-0.5 to 0.5)); higher = stronger / more preferred TF binding; most listed sequences are background and not binding sites
Settings: protein concentration: 100 nM; construct: GST-full length
How it was run: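 Using PURExpress in vitro transcription/translation, GST-tagged yeast transcription factors were made in full-length or DNA-binding-domain form. These were applied at about 100-200 nM to double-stranded universal all-10-mer Agilent arrays, and bound protein was detected with fluorescent anti-GST. Scans were normalised with masliner before the Universal PBM Analysis Suite assigned E-scores to ungapped eight-base words pooled with their reverse complements.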

Sequence	PBM E-score
ACTCCGCA	0.156
CCTGCTAC	-0.0553
ACCGGTCG	0.0453
CTGTCATA	-0.00757
CCCATCAC	-0.136
CGAGAAGC	0.26
CCCTGATC	0.00139
ATCACAGC	-0.193
AATGGGCC	0.0902
GAAACAGC	-0.0542
CCGCTAAC	0.141
CACAATCG	0.0642
ACCCGGGA	0.0783
GCGGAGTA	-0.0905
CCATGGCA	-0.136
TAGGCGCA	0.225
GAAGACGC	0.304
CACCCCGG	-0.151
AATCACAC	0.113
GGAGTTAC	-0.288
CCGACCCG	-0.148
GACGATTA	-0.0443
CAATATCA	-0.207
GTCAGAAC	-0.0896
CAGCGGAA	0.0476

Sequence	PBM E-score
AGGTTACT	-0.0782
CTCAACAG	0.0101
CAAATGTA	0.0852
CCGGGTGC	0.245
GCTAAATA	0.129
CTATCTTA	0.0203
GCACGCCC	-0.122
GCCCATGA	-0.121
CACTTAAG	0.052
CTAAGCTC	-0.126
ACGGCCCT	-0.263
ATGGTGCG	0.0681
GAGTTTGC	-0.142
AGTCACCA	-0.0677
ATATTTGA	0.0958
ATGCCTTA	-0.15
ACATAACA	0.0753
AGGTGACA	0.0175
AATGGCAG	0.143
GGTCCTCA	-0.0385
AATCATGT	-0.137
ACAGACCG	-0.104
ACACATCA	0.0271
CGATTAAC	0.013
CATTACCG	-0.153

Sequence	PBM E-score
GAGGGGAC	-0.0671
CCCGTCTA	-0.0544
CATGAGTA	-0.0943
AGGATTCG	0.126
AGCTTCGA	0.0125
ATTGTGCG	-0.236
ACAGAGCG	-0.229
ACTTAAGT	0.0648
ACTGTCTC	-0.0499
TCTGGACA	0.0373
GAGCTGAC	-0.0979
CGCGGCCC	0.0327
TCATACGA	0.111
CTTTCATC	-0.0339
CCATGAGG	-0.146
GCAGAAAA	0.158
CGATATTA	0.0468
ACCCATGG	0.0263
ACGCCCAT	-0.118
CACTATTA	0.196
CATCAGAC	-0.0224
CGTTAGGA	0.0129
CGGTTTAA	-0.0718
AAGTTGGA	0.261
ACATGTGG	0.125

Sequence	PBM E-score
GCCTTAAA	-0.0836
CTTTAGCA	0.0232
CGGAAGAC	0.102
CCACTTCA	0.215
CACGGTCC	-0.0281
CCAACTAA	0.133
CCAGAATA	0.283
AAAAACTC	-0.0203
AACATCTA	0.112
ACCGTGCA	-0.296
AGCTCCCA	0.221
GTAGAGAA	0.0297
ATTACTGC	-0.0604
ATCCCGAT	0.0523
GCTAATTA	-0.0265
ATTGAAAA	0.0725
ACTTCGGC	-0.0369
GCGATCGA	-0.276
ATCAAACG	-0.0391
GTGGTAAA	-0.0819
GATTCTGC	-0.0982
CAGATTCA	-0.0169
ACCCTTCC	-0.106
CCACAAAA	0.282
ACGTTGCG	0.139

Sequence	PBM E-score
AGGAAATC	-0.145
CACTATGA	-0.0249
ACTATAAT	0.177
CCCAACAC	0.0203
AAAAATGT	0.0608
AGACTCTG	0.0321
AAATCATC	-0.0813
GCCATAGC	-0.0767
CCTGTAAC	0.217
AAAGTCGG	-0.122
ACGTGTGC	-0.0784
GTTAGTGA	-0.275
AGAATTGA	-0.00502
CCAAGCAA	-0.0239
AGTTAGAG	0.125
CTGTTTCC	0.0835
CACGTGCC	-0.121
GTTGTATA	0.0484
AAGTAGCT	0.208
AAGAGGCA	0.157
AATGATCC	0.0954
AGAACAAG	-0.0582
GACAGCGC	-0.234
CCTTGCCG	-0.204
AGAAAAAT	-0.0489

Sequence	PBM E-score
ACTCGAGG	0.042
GGACAATA	-0.0211
ATAGCGGA	0.0708
CTAGCTTA	-0.172
AGCGGAAC	0.108
AACGCCGA	-0.0262
CTGCGACC	0.0296
AGCAGTGG	0.0343
AGGTCTGA	-0.237
TTATCCAA	0.0882
GACGGAAC	-0.0501
CACACTCG	-0.172
CAGCTGAC	-0.2
ACGGCAGT	-0.199
CGTTGTGC	-0.114
AAGGCGAC	0.0948
CTATCGGC	-0.00376
GAGATATA	0.108
ATTCCTTC	0.0393
ATCCACAA	0.187
CACGTCGC	0.0612
GCAGGAGC	0.00885
CCAAACAA	0.213
ACACCATG	0.0145
GGAAACAA	0.0444

Sequence	PBM E-score
AATACGGC	-0.152
AGTTGTGA	0.0449
ACGAATAC	0.189
CGAGCGTC	0.195
CCTTCGAA	0.00266
CCCGGCTC	0.08
AGACTCTA	-0.0553
CCCCTGTA	0.284
AACAATCC	-0.0423
CAATCAAA	0.0122
ACACTAAT	-0.022
CGGCTGTC	-0.136
TAGATTAA	-0.13
GATCAGAC	-0.0174
AAGCCTCG	-0.128
CCTTGTAA	0.137
CCGCCCGC	-0.0787
ATTATTGC	-0.0143
GGGTCTTA	0.0592
CACGGCAC	0.15
ACAATCAG	-0.12
CACTTAAC	-0.0345
ACCTCCGT	-0.158
GTACGTTA	-0.16
ATTATAAT	0.212

Sequence	PBM E-score
CTTGTGGC	0.0758
GTTTCGTA	0.0977
CTTCCGAC	-0.00712
GGGGCCCC	0.182
CCAGAAAC	0.269
AGTCTAAA	-0.159
CTTATACC	-0.0274
ACGCCAGT	0.137
ACCAACTC	0.106
GAAGCAAA	-0.11
AAGCGGCA	0.0641
AAGTTGCA	0.0286
CTCGAGAC	0.0137
ATCAACTC	-0.144
TGTACGAA	-0.0883
CCGCGCGA	-0.196
GTTATATA	-0.0408
AACCCAAG	-0.0529
CAGTAGGC	0.0563
AGTACGAT	0.0999
CGGGGCGA	-0.101
CCAGTAAC	0.205
AACGCCTC	-0.0454
GGTGTACA	-0.124
CTAAAGTA	-0.0382

Sequence	PBM E-score
AGAATGGA	0.0185
CTTCCCCA	0.141
CCAATTTA	0.0335
AGCCTGCA	-0.0383
CTATATAG	0.0489
ATTGCCGA	-0.127
GCGTGTGA	-0.0466
TTCATGAA	0.169
AACGACCT	0.00615
CATTGCGG	-0.0547
CTGTGTGA	-0.0438
CAGGGGCG	-0.016
ATCGCAAG	-0.138
ACCCGTAG	0.101
ACAACCTC	-0.144
CGCTTATC	-0.159
TGCCGGCA	0.0322
CATGGGGG	-0.186
GCATCCCA	0.309
